Here are results for 31 molecules from paper PMC12434519 (ACS Medicinal Chemistry Letters, 2025).

For the assay, the target named is SARS-CoV-2 NSP14 (Severe acute respiratory syndrome coronavirus 2, UniProt P0DTD1). Kind of assay: biochemical.
The mark [1] stands for this setting: LUM % inhibition, read-out: SARS-CoV-2 NSP14 inhibition: IC50.
The mark [2] stands for this setting: LUM % inhibition, read-out: SARS-CoV-2 NSP14 inhibition: Maximum response.
Setting [3] is: fit of concentration-response curve.
Where [4] appears, read: Hill slope of the concentration-response fit.
Setting [5] is: maximum response, LUM % inhibition, read-out: SARS-CoV-2 NSP14 inhibition: Maximum response (%).
The mark [6] stands for this setting: read-out: SARS-CoV-2 NSP14 inhibition: IC50.
Setting [7] is: Merged IC50 (µM), TDI-015051 series, retrospective VS set, biochemical MTase assay.

Where two headings read alike, the source gives them in different places.

Broadly, the IC50 is the point on the concentration scale where inhibition reaches its midpoint. With `Cc1c(CO)cccc1C(=O)NC[C@H]1CC[C@@H](NC(=O)c2ccc3cnn(C)c3c2)C1` [RU-0834162], the IC50 under setting [1] is greater than 125 µM. Also, under setting [2], the Emax is 26%. In addition, under setting [3], the “SARS-CoV-2 NSP14 inhibition: Hill slope” value came to 61.9.

As for `O=C(NCc1cn2ccccc2n1)c1cccc(S(=O)(=O)NCc2ccccc2)c1` [RU-0833652], the “SARS-CoV-2 NSP14 inhibition: Hill slope” value under setting [4] was found to be 18.9. Further, the Emax under setting [5] was found to be 2.13%. The 50% inhibitory concentration (IC50) under setting [6] was greater than 62.5 µM.

As for `Cc1nccn1-c1cc(CNC(=O)[C@H]2CC(=O)N(c3cccc(C(F)(F)F)c3)C2)ccn1` [RU-0833654], under setting [4], the “SARS-CoV-2 NSP14 inhibition: Hill slope” value is 20.9. For the same molecule, the Emax under setting [5] was -1.03%. Besides, the IC50 under setting [6] is greater than 62.5 µM.

`Cc1c(S(=O)(=O)c2cc(Cl)c3[nH]ncc3c2)cc(C(=O)N[C@@H]2CCN(c3ncc(F)cn3)C2)n1C` [TDI-016705, Cc1c(S(=O)(=O)c2cc(Cl)c3[nH]ncc3c2)cc(C(=O)N[C@@H]2CCN(c3ncc(F)cn3)C2)n1C] yielded a half-maximal inhibitory concentration (IC50) under setting [7] of 3.63e-05 µM.

As to `O=C(CCCn1c(=O)oc2ccccc21)Nc1cccc(N2CCCC2=O)c1` [RU-0833688], the “SARS-CoV-2 NSP14 inhibition: Hill slope” value under setting [4] is 1.16. Further, the Emax under setting [5] was 21.7%. For the same molecule, the IC50 under setting [6] is greater than 62.5 µM.

Consider `Cc1cc(O)cc(C)c1C(=O)NCc1ccc(CNC(=O)c2ccc3cncn3c2)cc1` [RU-0834186], for which the IC50 under setting [1] worked out at 25.5 µM. Besides, the Emax under setting [2] came to 39.3%. Also, the “SARS-CoV-2 NSP14 inhibition: Hill slope” value under setting [3] turned out to be 0.999.

Consider `Cc1cc(C(=O)NC2CC(C(C)NC(=O)c3ncn4ccccc34)C2)ccc1O` (stereo not drawn) [RU-0834137], for which the IC50 under setting [1] is greater than 125 µM. In addition, the Emax under setting [2] amounted to 39.6%. Also, under setting [3], the “SARS-CoV-2 NSP14 inhibition: Hill slope” value is 0.617.

On to `O=C(NCc1ccc(C(=O)NCc2nnc3n2CCC3)nc1)c1ccc2nccn2c1` [RU-0834143], for which, under setting [1], the IC50 was greater than 125 µM. For the same molecule, under setting [2], the Emax was 10.5%. Under setting [3], the “SARS-CoV-2 NSP14 inhibition: Hill slope” value is 13.1.

Consider `O=C(Cc1c[nH]c2nccc(Cl)c12)NCc1ccccc1-n1cc(CN2CCCC2=O)nn1` [RU-0833679], for which, under setting [4], the “SARS-CoV-2 NSP14 inhibition: Hill slope” value was 27.2. For the same molecule, the Emax under setting [5] is -0.0529%. Further, under setting [6], the IC50 is greater than 62.5 µM.

`O=C(Cn1nc(-c2nc(-c3ccc(F)cc3)no2)ccc1=O)Nc1ccccc1F` [RU-0833881]: the IC50 under setting [1] was greater than 125 µM. Besides, under setting [2], the Emax was found to be 17.1%. Further, under setting [3], the “SARS-CoV-2 NSP14 inhibition: Hill slope” value stood at 49.1.

Turning to `O=C(N[C@@H]1CC[C@H]1NC(=O)c1ccnc2[nH]ccc12)c1cccc(C2CC2)c1` [RU-0833670], the “SARS-CoV-2 NSP14 inhibition: Hill slope” value under setting [4] was 10.9. Moreover, under setting [5], the Emax was 3.36%. Further, under setting [6], the IC50 was greater than 62.5 µM.

With `O=C(Cc1cccc2c1CCC2)NCc1ccccc1CNC(=O)c1ccc2[nH]ncc2c1` [RU-0834087], the IC50 under setting [1] is greater than 125 µM. For the same molecule, under setting [2], the Emax came out at 14.6%. The “SARS-CoV-2 NSP14 inhibition: Hill slope” value under setting [3] was found to be 264.

As to `O=C(Nc1cccc(CNC(=O)c2c[nH]c3cc(F)ccc23)c1)c1ccncc1` [RU-0833634], the “SARS-CoV-2 NSP14 inhibition: Hill slope” value under setting [4] is on record as 1.54. Moreover, the Emax under setting [5] came to 14.3%. The IC50 under setting [6] is greater than 62.5 µM.

In the case of `Cc1cc2cc(C(=O)N[C@@H]3CCC[C@H](CNC(=O)c4nccn5ccnc45)C3)ccc2[nH]1` [RU-0834165], the IC50 under setting [1] was greater than 125 µM. Moreover, the Emax under setting [2] is 12.1%. Besides, the “SARS-CoV-2 NSP14 inhibition: Hill slope” value under setting [3] was 210.

Take `O=C(NC1CC(O)(CNC(=O)c2cnn3ncccc23)C1)c1ccc(O)cc1F` (stereo not drawn) [RU-0834144]: under setting [1], the concentration for half-maximal inhibition (IC50) was greater than 125 µM. For the same molecule, the Emax under setting [2] was found to be 9.15%. For the same molecule, the “SARS-CoV-2 NSP14 inhibition: Hill slope” value under setting [3] came to 61.

With `COc1ccc(NC(=O)CNC(=O)c2ccccc2F)cc1S(=O)(=O)Nc1ccccc1Cl` [RU-0833904], under setting [1], the IC50 is greater than 125 µM. The Emax under setting [2] was found to be 15.2%. The “SARS-CoV-2 NSP14 inhibition: Hill slope” value under setting [3] was found to be 8.4.

`Cc1cc(CC(=O)N2CCOCC(CNC(=O)c3n[nH]c4ccccc34)C2)ccc1O` (stereo not drawn) [RU-0834127]: under setting [1], the IC50 is greater than 125 µM. In addition, the Emax under setting [2] worked out at 13.7%. Moreover, under setting [3], the “SARS-CoV-2 NSP14 inhibition: Hill slope” value is 46.

Regarding `O=C(NCC1CCC2(CN(C(=O)c3ccc(O)cc3F)C2)O1)c1nccn2ccnc12` (stereo not drawn) [RU-0834085], under setting [1], the half-inhibitory concentration (IC50) is greater than 125 µM. Further, the Emax under setting [2] was 19.7%. The “SARS-CoV-2 NSP14 inhibition: Hill slope” value under setting [3] turned out to be 57.4.

Consider `Cc1cc(C(=O)NCC2(CCNC(=O)c3cnn4ccccc34)CC2)cc2cn[nH]c12` [RU-0834082], for which, under setting [1], the IC50 is greater than 125 µM. Moreover, the Emax under setting [2] came to 24.6%. Besides, the “SARS-CoV-2 NSP14 inhibition: Hill slope” value under setting [3] is given as 0.967.

As for `CC1(CNC(=O)c2ncn3ccccc23)CCC(NC(=O)c2ccn3cncc3c2)C1` (stereo not drawn) [RU-0834148], under setting [1], the IC50 is greater than 125 µM. The Emax under setting [2] was determined as 10.2%. For the same molecule, under setting [3], the “SARS-CoV-2 NSP14 inhibition: Hill slope” value amounted to 15.4.

On to `O=C(NCc1ccc(C(=O)NCc2ccccc2Cl)nc1)c1ccnc(CO)c1` [RU-0834126], for which, under setting [1], the IC50 is greater than 125 µM. Under setting [2], the Emax was found to be 16.7%. Further, the “SARS-CoV-2 NSP14 inhibition: Hill slope” value under setting [3] was 1.59.

Take `COc1ccc(S(=O)(=O)CCc2noc(C(=O)NCc3cccc(OC)c3)n2)cc1` [RU-0833880]: the IC50 under setting [1] is greater than 125 µM. In addition, under setting [2], the Emax was 16%. Further, the “SARS-CoV-2 NSP14 inhibition: Hill slope” value under setting [3] is listed as 33.7.

Turning to `Cc1ccc(C)c(C(=O)Nc2cccc(CNC(=O)c3ccc4[nH]ncc4c3)c2)n1` [RU-0834108], the concentration for half-maximal inhibition (IC50) under setting [1] was found to be 23.7 µM. Also, the Emax under setting [2] worked out at 54%. In addition, the “SARS-CoV-2 NSP14 inhibition: Hill slope” value under setting [3] turned out to be 0.909.

For the molecule `Cn1ccn2ncc(C(=O)NCc3ccc(CCNC(=O)c4ccc(O)cc4)cc3)c12` [RU-0834197], the IC50 under setting [1] worked out at 16.8 µM. Also, the Emax under setting [2] turned out to be 49.2%. Further, the “SARS-CoV-2 NSP14 inhibition: Hill slope” value under setting [3] was found to be 1.01.

As to `Cc1cc(CC(=O)NCCC(O)CNC(=O)c2ccc3c(c2)COC3)ccc1F` (stereo not drawn) [RU-0834116], the IC50 under setting [1] is greater than 125 µM. For the same molecule, under setting [2], the Emax turned out to be 16.3%. Moreover, the “SARS-CoV-2 NSP14 inhibition: Hill slope” value under setting [3] amounted to 11.5.

Regarding `Cc1cc(C(=O)N[C@@H]2CC[C@H](CNC(=O)c3cnn4ccn(C)c34)C2)ccc1O` [RU-0834160], the concentration for half-maximal inhibition (IC50) under setting [1] was greater than 125 µM. For the same molecule, the Emax under setting [2] amounted to 17%. For the same molecule, the “SARS-CoV-2 NSP14 inhibition: Hill slope” value under setting [3] was found to be 1.6.

Take `Cc1c(S(=O)(=O)c2ccc3[nH]nc(F)c3c2)cc(C(=O)NCc2c[nH]c(=O)c3cccnc23)n1C` [TDI-016647, Cc1c(S(=O)(=O)c2ccc3[nH]nc(F)c3c2)cc(C(=O)NCc2c[nH]c(=O)c3cccnc23)n1C]: half-maximal inhibition under setting [7] (IC50) required 0.00332 µM.

Regarding `CN(CC(=O)Nc1ccnn1Cc1ccncc1)S(=O)(=O)c1ccc2ccccc2c1` [RU-0833669], the “SARS-CoV-2 NSP14 inhibition: Hill slope” value under setting [4] turned out to be 0.475. Also, the Emax under setting [5] amounted to 9.76%. The IC50 under setting [6] is greater than 62.5 µM.

With `O=C(NCc1cccc(NC(=O)c2n[nH]c3ncccc23)c1)c1ccc2c(n1)CCC2` [RU-0833940], the IC50 under setting [1] was 14.9 µM. The Emax under setting [2] came to 128%. For the same molecule, the “SARS-CoV-2 NSP14 inhibition: Hill slope” value under setting [3] came to 1.15.

`C=C1Nc2cc(C)nn2C(C)=C1CCC(=O)NCCS(=O)(=O)N1CCc2ccccc21` [RU-0833895]: the IC50 under setting [1] is greater than 125 µM. The Emax under setting [2] is 15.2%. Besides, the “SARS-CoV-2 NSP14 inhibition: Hill slope” value under setting [3] is 1.25.

Regarding `Cc1c(S(=O)(=O)N2CCn3cncc3C2)cc(C(=O)NCc2c(F)cccc2N2CCCC2)n1C` [TDI-014802, Cc1c(S(=O)(=O)N2CCn3cncc3C2)cc(C(=O)NCc2c(F)cccc2N2CCCC2)n1C], under “TDI-015051 series, retrospective VS set, biochemical MTase assay, read-out: Merged IC50”, the IC50 is 0.000858 µM.
